# Among all 340,000 compounds or so, about 170 (0.05%) were called active. Another 26% or so got no clear call; they are omitted. Calls come from the whole dose curve; as a rule, active = well fitted inhibition curve with a large enough effect in the signal ratio, with a control signal flat (not every such curve was filed as active); inconclusive = small, poorly fitted or top-dose-only effect, or effect the other way, or a change in a side signal; inactive = flat fitted curve, though single readings scatter; the % refers to the signal ratio. This is a selection; strong and weak results do not stand in their true shares.
# Assay: qHTS Assay to Find Inhibitors of Chronic Active B-Cell Receptor Signaling;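 for activity change, negative = inhibition: plate controls were basal doxycycline-induced cells for no effect and cells given 10 µM MG132 for full effect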
# Conditions: ABC-DLBCL IkBa-CBG/CBR reporter, luminescence ratio (green luciferase fused to IkBa over red control in TMD8 lymphoma cells), 4 h; series mostly up to 46.1 µM; activity change, negative = inhibition: at the top concentration
# Summary of the method: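 Compounds up to 46 uM were incubated four hours with TMD8 cells whose green CBG68 luciferase is fused to IkappaBalpha; red CBR luminescence normalised the signal, and concentration-effect curves were fitted to fusion, red and ratio data.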
# Potency is the fitted concentration of half-maximal effect.
SMILES,"activity change, negative = inhibition",Potency
CCOC(=O)[C@@H]1[C@H]2COc3ccccc3[C@@H]2N2C(=O)N(c3cccc(F)c3)C(=O)[C@@]12C,inactive: 0.793%,–
CCOC(=O)[C@@H]1[C@H]2COc3cc(OC)ccc3[C@H]2N2C(=O)N(c3cccc(F)c3)C(=O)[C@]12C,inactive: 0.46%,–
COc1ccc(S(=O)(=O)NC(C)C)cc1-n1cnnn1,inactive: -0.514%,–
COCCNC(=O)CSc1nc2cc3c(cc2c(=O)n1CCCC(=O)NCCc1ccc(OC)c(OC)c1)OCO3,inactive: 15.6%,–
CCN1C(=NCc2ccco2)N[C@@H](c2cccc(F)c2)C(C(=O)OC)=C1C,inactive: -1.19%,–
Cc1ccc(C(=O)C[n+]2cc(-c3ccccc3)n3c2CCCCC3)cc1,inactive: -6.47%,–
COc1cccc(/C=N/NC(=O)c2cc3c(OC)ccc(OC)c3[nH]2)c1O,–,active: 3.16 µM
CC1=C(C(=O)OCC(C)C)C23C(=O)c4ccccc4C2(O1)OC(N)=C3C#N (stereo not given),inactive: 9.39%,–
CCCOc1ccccc1C1CC(=O)Nc2cc3c(cc21)OCO3 (stereo not given),–,active: 23.1 µM
COc1cc(C(=O)OC(C)CN2CCOCC2)cc(OC)c1OC (stereo not given),inactive: -0.337%,–
COc1ccc(N=C2NC(=O)/C(=C\c3ccco3)S2)cc1,inactive: -8.08%,–
O=C1NC[C@@H](c2ccccc2)OC(=O)[C@H](Cc2ccc(F)cc2)C/C=C\C[C@H]1CC(=O)N(CCO)Cc1ccccc1,inactive: 2.84%,–
C[C@H](CO)N1C[C@H](C)[C@@H](CN(C)C(=O)Nc2ccc3c(c2)OCO3)Oc2ccc(NC(=O)C3CCCCC3)cc2C1=O,inactive: -5.67%,–
C[C@H](NC(=O)c1nc[nH]c1C(=O)N1CCN(c2ccccc2)CC1)c1ccccc1,inactive: -6.19%,–
COC(=O)/C(=C/c1c[nH]c2ccccc12)NC(C)=O,inactive: 4.37%,–
Cn1ccc2cc(-c3csc(N4CCC(C(N)=O)CC4)n3)ccc21,inactive: 3.68%,–
CCn1c(SCC(=O)N/N=C/C=C\c2ccco2)nc2ccccc21,inactive: -16.9%,–
CC(C)(C)[C@@H]1C=C(C(=O)N2CCN(Cc3ccccc3)CC2)O[C@H](OCCCCO)C1,inactive: -11.5%,–
Fc1ccccc1-c1ccc(/C=N/Nc2nc3ccccc3[nH]2)o1,–,active: 23.1 µM
Cc1cccc(C(=O)NC(C(=O)Nc2cccc(S(=O)(=O)N3CCCC3)c2)C(C)C)c1 (stereo not given),inactive: -0.302%,–

SMILES,"activity change, negative = inhibition",Potency
C[C@H]1COC(=O)[C@H](Cc2ccc(F)cc2)C/C=C\C[C@@H](CC(=O)NCCO)C(=O)N1,inactive: -1.15%,–
CCO[C@@H]1OC(C(=O)Nc2ccccc2)=C[C@H](c2ccc(C(F)(F)F)cc2)[C@H]1CCCO,inactive: 15.3%,–
COc1ccc(OC)c(S(=O)(=O)NCC(c2ccco2)S(=O)(=O)c2ccccc2)c1 (stereo not given),inactive: 1.01%,–
CCCCCCNC(=O)N[C@H](C(=O)NCCC[C@H]1CN2C(=NC[C@H]2C)N1CCC(c1ccccc1)c1ccccc1)C(C)O (stereo not given in full),–,active: 17.8 µM
C[C@]12C=CC(=O)C=C1CC[C@@H]1[C@@H]2C(=O)C[C@@]2(C)[C@H]1CC[C@]2(O)C(=O)CO,inactive: -15.2%,–
CCN(CC)S(=O)(=O)c1cccc(C(=O)NC(C(=O)NC2=NCCS2)C(C)C)c1 (stereo not given),inactive: -0.862%,–
COC(C[C@@H]1O[C@@H]1[C@@H](O)COCc1ccccc1)OC,inactive: 0.559%,–
O=C(NC1CC1)C1=C[C@@H](c2c[nH]c3ccccc23)C[C@@H](OCc2ccc(CO)cc2)O1,inactive: -3.84%,–
CC(C)[C@H](NC(=O)N1CCn2c1nc1ccccc12)C(=O)N[C@@H](C(=O)O)c1ccccc1,inactive: -0.232%,–
CC(C)(C)OC(=O)C[C@@H]1C/C=C\C[C@H](CC(=O)N(CCO)Cc2ccccc2)C(=O)NC[C@@H](c2ccccc2)OC1=O,inactive: 3.74%,–
C=CCC[C@@H](Cc1ccc(F)cc1)C(=O)OC[C@@H](Cc1c[nH]c2ccccc12)NC(=O)[C@@H](CC=C)CC(=O)N[C@@H](CO)Cc1ccccc1,inactive: -0.299%,–
CS(=O)(=O)Nc1cccc(C(=O)CC2(O)C(=O)Nc3ccc(Br)cc32)c1 (stereo not given),inactive: -15.1%,–
C[C@@H]1COC(=O)[C@H](CC(=O)OC(C)(C)C)C/C=C\C[C@H](CC(=O)NCCO)C(=O)N1,inactive: 2.89%,–
C=CC[C@H](CC(=O)NCCO)C(=O)N[C@H](COC(=O)[C@@H](CC=C)CC(=O)OC(C)(C)C)Cc1c[nH]c2ccccc12,inactive: -0.527%,–
CN(C)c1cc2c(cc1NS(=O)(=O)c1ccccc1)n(C)c(=O)n2C,inactive: -18.4%,–
C[C@@H]1COC(=O)[C@@H](CC(=O)OC(C)(C)C)C/C=C\C[C@@H](CC(=O)N[C@H](CO)Cc2ccccc2)C(=O)N1,inactive: 0.625%,–
CCCSc1nnc(Sc2nnnn2-c2ccccc2)s1,–,active: 9.2 µM
COC(=O)C1=C(C)N(Cc2ccccc2)C(=NCc2ccccc2)N[C@H]1c1ccccc1,inactive: 2.13%,–
O=C1c2c(O)cc(O)cc2O[C@H](c2ccc(O)c(O)c2)[C@H]1O,inactive: -18.6%,–
C[C@H](CO)N1C[C@H](C)[C@@H](CN(C)S(=O)(=O)c2ccccc2)Oc2ccc(NC(=O)C3CCCCC3)cc2C1=O,inactive: -4.17%,–
